These results are taken from publication PMC12820563, “FoxP3 forms a head-to-head dimer in vivo and stabilizes its multimerization on adjacent microsatellites”.

The other results are listed elsewhere or left out.

The experiment addresses T1, MBP-FoxP1dN (Mus musculus, UniProt P58462 326-579).
T1 sequence: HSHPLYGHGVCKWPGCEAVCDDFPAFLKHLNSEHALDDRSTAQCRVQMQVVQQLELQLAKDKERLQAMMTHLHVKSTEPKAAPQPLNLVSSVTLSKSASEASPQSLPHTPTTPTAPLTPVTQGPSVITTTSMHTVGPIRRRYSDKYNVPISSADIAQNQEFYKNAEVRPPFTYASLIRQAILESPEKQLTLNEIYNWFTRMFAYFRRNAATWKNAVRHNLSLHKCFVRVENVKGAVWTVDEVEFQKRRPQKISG
Description: PD-seq (MBP pull-down with sequencing); 20 mM Tris-HCl pH 7.5, 100 mM NaCl, 1.5 mM MgCl2, 0.4 uM protein, 0.1 uM dsDNA library, 30 min, room temperature, amylose pull-down; high values mean tight binding. Particulars: protein: recombinant; tags: His6-MBP; chain copies: 2; dsDNA, one strand shown. The method in brief:
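His6-MBP-tagged mouse FoxP3 or FoxP1 fragment lacking the N-terminus, expressed in E. coli, was mixed at 0.4 µM with 0.1 µM Klenow-filled double-stranded degenerate DNA library. Incubation was 30 min at room temperature in Tris pH 7.5 buffer with NaCl and MgCl2. Complexes were caught on amylose resin and washed three times; DNA was released with proteinase K, PCR-barcoded and Illumina-sequenced. Binding is reads-per-million enrichment, pull-down over input, with replicates pooled.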
Regarding “GATGATTGTTCTCCCAGCTGATGAATTGCAGATTTCGAGTAAACAAATTTTCCTAATCTTTCTGTTCAAGCGCCATCTAC”, the binding signal is 1.16 RPM ratio (pull-down/input).
“GATGATTGTTCTCCCAGCTGATGAATTCTGCCCATCGAGTAAACAAATTTTCCTAATCTTTCTGTTCAAGCGCCATCTAC”: the binding signal is 0.911 RPM ratio (pull-down/input).
Then “GATGATTGTTCTCCCAGCTGATGAATTGGGTCCATCGAGTAAACAAATTTTCCTAATCTTTCTGTTCAAGCGCCATCTAC”, with 0.888 RPM ratio (pull-down/input); and “GATGATTGTTCTCCCAGCTGATGAATTATTTAATTCGAGTAAACAAATTTTCCTAATCTTTCTGTTCAAGCGCCATCTAC”, with 1.18 RPM ratio (pull-down/input).
With “GATGATTGTTCTCCCAGCTGATGAATTGGTCCATTCGAGTAAACAAATTTTCCTAATCTTTCTGTTCAAGCGCCATCTAC”, the binding signal is 0.983 RPM ratio (pull-down/input).
Consider “GATGATTGTTCTCCCAGCTGATGAATTGAGGCATTCGAGTAAACAAATTTTCCTAATCTTTCTGTTCAAGCGCCATCTAC”, for which the binding signal is 1.07 RPM ratio (pull-down/input).
As for “GATGATTGTTCTCCCAGCTGATGAATTCCGAGGTTCGAGTAAACAAATTTTCCTAATCTTTCTGTTCAAGCGCCATCTAC”, the binding signal was 0.708 RPM ratio (pull-down/input).
For “GATGATTGTTCTCCCAGCTGATGAATTGGGCGTCTCGAGTAAACAAATTTTCCTAATCTTTCTGTTCAAGCGCCATCTAC”, the binding signal was 0.858 RPM ratio (pull-down/input).
In the case of “GATGATTGTTCTCCCAGCTGATGAATTACACGGTTCGAGTAAACAAATTTTCCTAATCTTTCTGTTCAAGCGCCATCTAC”, the binding signal is 1.14 RPM ratio (pull-down/input).
As to “GATGATTGTTCTCCCAGCTGATGAATTGACGCAGTCGAGTAAACAAATTTTCCTAATCTTTCTGTTCAAGCGCCATCTAC”, the binding signal was 1.13 RPM ratio (pull-down/input).
On to “GATGATTGTTCTCCCAGCTGATGAATTAAATTTATCGAGTAAACAAATTTTCCTAATCTTTCTGTTCAAGCGCCATCTAC”, for which the binding signal is 1.16 RPM ratio (pull-down/input).
Regarding “GATGATTGTTCTCCCAGCTGATGAATTCCACTCCTCGAGTAAACAAATTTTCCTAATCTTTCTGTTCAAGCGCCATCTAC”, the binding signal is 0.792 RPM ratio (pull-down/input).
On to “GATGATTGTTCTCCCAGCTGATGAATTCAGACAGTCGAGTAAACAAATTTTCCTAATCTTTCTGTTCAAGCGCCATCTAC”, for which the binding signal is 0.802 RPM ratio (pull-down/input).
With “GATGATTGTTCTCCCAGCTGATGAATTATCACATTCGAGTAAACAAATTTTCCTAATCTTTCTGTTCAAGCGCCATCTAC”, the binding signal is 1.16 RPM ratio (pull-down/input).
With “GATGATTGTTCTCCCAGCTGATGAATTCCCGTTTTCGAGTAAACAAATTTTCCTAATCTTTCTGTTCAAGCGCCATCTAC”, the binding signal was 0.97 RPM ratio (pull-down/input).
Take “GATGATTGTTCTCCCAGCTGATGAATTGCTCACCTCGAGTAAACAAATTTTCCTAATCTTTCTGTTCAAGCGCCATCTAC”: the binding signal is 0.938 RPM ratio (pull-down/input).
For the sequence “GATGATTGTTCTCCCAGCTGATGAATTACACTGGTCGAGTAAACAAATTTTCCTAATCTTTCTGTTCAAGCGCCATCTAC”, the binding signal is 1.03 RPM ratio (pull-down/input).
Then “GATGATTGTTCTCCCAGCTGATGAATTGGTCCCGTCGAGTAAACAAATTTTCCTAATCTTTCTGTTCAAGCGCCATCTAC”, with 0.865 RPM ratio (pull-down/input); and “GATGATTGTTCTCCCAGCTGATGAATTGTTACCATCGAGTAAACAAATTTTCCTAATCTTTCTGTTCAAGCGCCATCTAC”, with 1.31 RPM ratio (pull-down/input); and “GATGATTGTTCTCCCAGCTGATGAATTAGTGATATCGAGTAAACAAATTTTCCTAATCTTTCTGTTCAAGCGCCATCTAC”, with 1.1 RPM ratio (pull-down/input).
In the case of “GATGATTGTTCTCCCAGCTGATGAATTAAAGCGGTCGAGTAAACAAATTTTCCTAATCTTTCTGTTCAAGCGCCATCTAC”, the binding signal was 0.912 RPM ratio (pull-down/input).
On to “GATGATTGTTCTCCCAGCTGATGAATTTGAATAGTCGAGTAAACAAATTTTCCTAATCTTTCTGTTCAAGCGCCATCTAC”, for which the binding signal is 0.867 RPM ratio (pull-down/input).
Then “GATGATTGTTCTCCCAGCTGATGAATTCGGTTTTTCGAGTAAACAAATTTTCCTAATCTTTCTGTTCAAGCGCCATCTAC”, with 0.939 RPM ratio (pull-down/input); and “GATGATTGTTCTCCCAGCTGATGAATTGCCCCAATCGAGTAAACAAATTTTCCTAATCTTTCTGTTCAAGCGCCATCTAC”, with 1.01 RPM ratio (pull-down/input).
Regarding “GATGATTGTTCTCCCAGCTGATGAATTTCTGAGTTCGAGTAAACAAATTTTCCTAATCTTTCTGTTCAAGCGCCATCTAC”, the binding signal is 0.778 RPM ratio (pull-down/input).
Consider “GATGATTGTTCTCCCAGCTGATGAATTCCTGTCGTCGAGTAAACAAATTTTCCTAATCTTTCTGTTCAAGCGCCATCTAC”, for which the binding signal is 0.876 RPM ratio (pull-down/input).
Consider “GATGATTGTTCTCCCAGCTGATGAATTCAGGAGTTCGAGTAAACAAATTTTCCTAATCTTTCTGTTCAAGCGCCATCTAC”, for which the binding signal is 0.809 RPM ratio (pull-down/input).
Then “GATGATTGTTCTCCCAGCTGATGAATTCCCACAATCGAGTAAACAAATTTTCCTAATCTTTCTGTTCAAGCGCCATCTAC”, with 1.21 RPM ratio (pull-down/input); and “GATGATTGTTCTCCCAGCTGATGAATTCCGTGGGTCGAGTAAACAAATTTTCCTAATCTTTCTGTTCAAGCGCCATCTAC”, with 0.779 RPM ratio (pull-down/input); and “GATGATTGTTCTCCCAGCTGATGAATTCCATTACTCGAGTAAACAAATTTTCCTAATCTTTCTGTTCAAGCGCCATCTAC”, with 0.874 RPM ratio (pull-down/input).
On to “GATGATTGTTCTCCCAGCTGATGAATTACGAACGTCGAGTAAACAAATTTTCCTAATCTTTCTGTTCAAGCGCCATCTAC”, for which the binding signal was 1 RPM ratio (pull-down/input).
